# Reference: the supplement of paper PMC8728848
# Some of the results follow.
# B1: B725 (Bifidobacterium sp) (protein)
# chain: MNNTTRAVIATAAIGALLIPLAGCGNTTTSSGKTELTVWSWDASIDRAAKSFMKANPDITVKVSNVGSTEETYTALNNAAQAGSGLPDVTLIEYLAIPQFVHSDTLMDLSKVYNTAKLKDTFTPGTWNSVNINGGLYAMPADSGPMAYFYDKDVFDKAGISEPPTTWDEFYEDAKKIRATGSYITSDSGDAGLFNAMMWAMGGHAYKLNDDKLTINIAKDKGAQRFMDLWQKMRDEDLIDVHTKTWTDDWMKSLGDGSIASLISGAWMANNLLQGVPQATGKFRVALLPTIDGTPINGEYGGSGLAITKKIPDGKLDAAKKFVEYVTTNDEGIDARVSNGSFPATTKTLNQKDFLAKTTLRNTDGSDNEFFGGQKYNEIFSQAAKDVTGKWEFLPFEPYARSVYNDNMGSFFAGKTSFRTAADNWQKALKDYAKDQGFTVQ
# Key:
# Assay in all cases: glycan array binding signal (z-score within array); higher = stronger binding
# Settings in all cases: glycan notation: IUPAC condensed, linker removed
# [1] = target: Man(a1-3)[Man(a1-6)]Man(a1-6)[Man(a1-3)]Man
# How it was run: (§1)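 Glycan array data were curated from 3228 arrays in the Consortium for Functional Glycomics database and kept only where the protein sequence was available. Glycan names were converted to IUPAC-condensed notation, and columns mapping to the same glycan were averaged. The binding signal is a within-array Z-score, averaged across arrays of the same protein sequence at different concentrations or buffers and across linkers. Negative Z-scores can be read as non-binding.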
# [2] = target: Man(a1-3)[Man(a1-6)]Man(a1-6)[Man(a1-3)]Man(b1-4)GlcNAc(b1-4)GlcNAc
# How it was run: as §1
# [3] = target: Man(a1-3)[Man(a1-6)]Man(b1-4)GlcNAc(b1-4)GlcNAc
# How it was run: as §1
# [4] = target: Man(a1-3)[Man(a1-6)]Man(b1-4)GlcNAc(b1-4)[Fuc(a1-6)]GlcNAc
# How it was run: as §1
# Man(a1-6)Man = target: Man(a1-6)Man
# How it was run: as §1
# Man(b1-4)GlcNAc = target: Man(b1-4)GlcNAc
# How it was run: as §1
# MurNAc(b1-4)GlcNAc = target: MurNAc(b1-4)GlcNAc
# How it was run: as §1
# Neu5Ac(a2-3)Gal = target: Neu5Ac(a2-3)Gal
# How it was run: as §1
# [5] = target: Neu5Ac(a2-3)Gal(b1-3)GalNAc
# How it was run: as §1
# [6] = target: Neu5Ac(a2-3)Gal(b1-3)GalNAc(b1-3)Gal(a1-4)Gal(b1-4)Glc
# How it was run: as §1
# [7] = target: Neu5Ac(a2-3)Gal(b1-3)GalNAc(b1-4)Gal(b1-4)Glc
# How it was run: as §1
# [8] = target: Neu5Ac(a2-3)Gal(b1-3)GalNAc(b1-4)[Neu5Ac(a2-3)]Gal(b1-4)Glc
# How it was run: as §1
# [9] = target: Neu5Ac(a2-3)Gal(b1-3)GalNAc(b1-4)[Neu5Ac(a2-8)Neu5Ac(a2-3)]Gal(b1-4)Glc
# How it was run: as §1
# [10] = target: Neu5Ac(a2-3)Gal(b1-3)GalNAc6S
# How it was run: as §1
# [11] = target: Neu5Ac(a2-3)Gal(b1-3)GlcNAc
# How it was run: as §1
# [12] = target: Neu5Ac(a2-3)Gal(b1-3)GlcNAc(b1-2)Man
# How it was run: as §1
# [13] = target: Neu5Ac(a2-3)Gal(b1-3)GlcNAc(b1-2)Man(a1-3)[GlcNAc(b1-4)][Neu5Ac(a2-3)Gal(b1-3)GlcNAc(b1-2)Man(a1-6)]Man(b1-4)GlcNAc(b1-4)GlcNAc
# How it was run: as §1
# [14] = target: Neu5Ac(a2-3)Gal(b1-3)GlcNAc(b1-2)Man(a1-3)[Neu5Ac(a2-3)Gal(b1-3)GlcNAc(b1-2)Man(a1-6)]Man(b1-4)GlcNAc(b1-4)GlcNAc
# How it was run: as §1
# [15] = target: Neu5Ac(a2-3)Gal(b1-3)GlcNAc(b1-2)[Neu5Ac(a2-3)Gal(b1-3)GlcNAc(b1-4)]Man(a1-6)[Neu5Ac(a2-3)Gal(b1-3)GlcNAc(b1-2)Man(a1-3)]Man(b1-4)GlcNAc(b1-4)GlcNAc
# How it was run: as §1
# [16] = target: Neu5Ac(a2-3)Gal(b1-3)GlcNAc(b1-3)Gal(b1-3)GlcNAc
# How it was run: as §1
# [17] = target: Neu5Ac(a2-3)Gal(b1-3)GlcNAc(b1-3)Gal(b1-4)GlcNAc
# How it was run: as §1
# [18] = target: Neu5Ac(a2-3)Gal(b1-3)GlcNAc(b1-3)GalNAc
# How it was run: as §1
# [19] = target: Neu5Ac(a2-3)Gal(b1-3)GlcNAc(b1-6)GalNAc
# How it was run: as §1
# [20] = target: Neu5Ac(a2-3)Gal(b1-3)GlcNAc6S
# How it was run: as §1
# [21] = target: Neu5Ac(a2-3)Gal(b1-3)[Fuc(a1-4)]GlcNAc
# How it was run: as §1
# [22] = target: Neu5Ac(a2-3)Gal(b1-3)[Fuc(a1-4)]GlcNAc(b1-3)Gal(b1-3)[Fuc(a1-4)]GlcNAc
# How it was run: as §1
# [23] = target: Neu5Ac(a2-3)Gal(b1-3)[Fuc(a1-4)]GlcNAc(b1-3)Gal(b1-4)[Fuc(a1-3)]GlcNAc
# How it was run: as §1
# [24] = target: Neu5Ac(a2-3)Gal(b1-3)[GlcNAc(b1-6)]GalNAc
# How it was run: as §1
# [25] = target: Neu5Ac(a2-3)Gal(b1-3)[Neu5Ac(a2-6)]GalNAc
# How it was run: as §1
# [26] = target: Neu5Ac(a2-3)Gal(b1-3)[Neu5Ac(a2-6)]GlcNAc(b1-3)[Fuc(a1-3)[Gal(b1-4)]GlcNAc(b1-6)]Gal(b1-4)Glc
# How it was run: as §1
# [27] = target: Neu5Ac(a2-3)Gal(b1-3)]Neu5Ac(a2-3)Gal(b1-4)]GlcNAc
# How it was run: as §1
# Neu5Ac(a2-3)Gal(b1-4)Glc = target: Neu5Ac(a2-3)Gal(b1-4)Glc
# How it was run: as §1
# [28] = target: Neu5Ac(a2-3)Gal(b1-4)GlcNAc
# How it was run: as §1
# [29] = target: Neu5Ac(a2-3)Gal(b1-4)GlcNAc(b1-2)Man
# How it was run: as §1
# [30] = target: Neu5Ac(a2-3)Gal(b1-4)GlcNAc(b1-2)Man(a1-3)[GlcNAc(b1-4)][Neu5Ac(a2-3)Gal(b1-4)GlcNAc(b1-2)Man(a1-6)]Man(b1-4)GlcNAc(b1-4)GlcNAc
# How it was run: as §1
# [31] = target: Neu5Ac(a2-3)Gal(b1-4)GlcNAc(b1-2)Man(a1-3)[Neu5Ac(a2-3)Gal(b1-4)GlcNAc(b1-2)Man(a1-6)]Man(b1-4)GlcNAc(b1-4)GlcNAc
# How it was run: as §1
# [32] = target: Neu5Ac(a2-3)Gal(b1-4)GlcNAc(b1-2)Man(a1-3)[Neu5Ac(a2-3)Gal(b1-4)GlcNAc(b1-2)Man(a1-6)]Man(b1-4)GlcNAc(b1-4)[Fuc(a1-6)]GlcNAc
# How it was run: as §1
# [33] = target: Neu5Ac(a2-3)Gal(b1-4)GlcNAc(b1-2)Man(a1-3)[Neu5Ac(a2-6)Gal(b1-4)GlcNAc(b1-2)Man(a1-6)]Man(b1-4)GlcNAc(b1-4)GlcNAc
# How it was run: as §1
binder,measurement,setting,value
B1,glycan array binding signal (z-score),[1],-0.234
same,glycan array binding signal (z-score),[2],-0.227
same,glycan array binding signal (z-score),[3],-0.224
same,glycan array binding signal (z-score),[4],-0.203
same,glycan array binding signal (z-score),Man(a1-6)Man,-0.232
same,glycan array binding signal (z-score),Man(b1-4)GlcNAc,-0.231
same,glycan array binding signal (z-score),MurNAc(b1-4)GlcNAc,-0.232
same,glycan array binding signal (z-score),Neu5Ac(a2-3)Gal,-0.213
same,glycan array binding signal (z-score),[5],-0.218
same,glycan array binding signal (z-score),[6],-0.221
same,glycan array binding signal (z-score),[7],-0.199
same,glycan array binding signal (z-score),[8],-0.184
same,glycan array binding signal (z-score),[9],-0.218
same,glycan array binding signal (z-score),[10],-0.218
same,glycan array binding signal (z-score),[11],-0.222
same,glycan array binding signal (z-score),[12],-0.219
same,glycan array binding signal (z-score),[13],-0.204
same,glycan array binding signal (z-score),[14],-0.156
same,glycan array binding signal (z-score),[15],-0.201
same,glycan array binding signal (z-score),[16],-0.231
same,glycan array binding signal (z-score),[17],-0.229
same,glycan array binding signal (z-score),[18],-0.225
same,glycan array binding signal (z-score),[19],-0.206
same,glycan array binding signal (z-score),[20],-0.226
same,glycan array binding signal (z-score),[21],-0.209
same,glycan array binding signal (z-score),[22],-0.218
same,glycan array binding signal (z-score),[23],-0.18
same,glycan array binding signal (z-score),[24],-0.221
same,glycan array binding signal (z-score),[25],-0.218
same,glycan array binding signal (z-score),[26],-0.226
same,glycan array binding signal (z-score),[27],-0.215
same,glycan array binding signal (z-score),Neu5Ac(a2-3)Gal(b1-4)Glc,-0.228
same,glycan array binding signal (z-score),[28],-0.223
same,glycan array binding signal (z-score),[29],-0.207
same,glycan array binding signal (z-score),[30],-0.218
same,glycan array binding signal (z-score),[31],-0.239
same,glycan array binding signal (z-score),[32],-0.203
same,glycan array binding signal (z-score),[33],-0.239
